These are yes or no findings as the source states them, for the method shown. For some assays here: In cells and extracts the contact can be indirect. Some results given as binding are weak or reduced against the parent protein; the word gives no strength.
How the values were obtained:
[1] = target: SFB-tagged wild-type Rad18 (human) (UniProt Q9NS91); experiment: co-IP; HEK293T cells transfected with SFB-tagged Rad18 or SLX4 (wild type or mutants), lysed 24 h later in NETN buffer, precipitated with S beads; western blot (Fig. 3F, Fig. 5C)
[2] = target: SFB-tagged Rad18 S403E (human) (UniProt Q9NS91); experiment: as above
[3] = target: His-sumo-tagged human Rad18 S403E (human) (UniProt Q9NS91); experiment: pull-down; His-sumo-tagged Rad18 bound to cobalt agarose, incubated with HEK293T cell lysate; NETN buffer without EDTA, 5 mM imidazole, 300 mM NaCl, 4 °C, 45 min; immunoblot; only the target purified
[4] = target: His-sumo-tagged wild-type human Rad18 (human) (UniProt Q9NS91); experiment: as above
[5] = target: His-sumo-tagged human Rad18 S403A (human) (UniProt Q9NS91); experiment: as above
[6] = target: His-sumo-tagged human Rad18 S403E (human) (UniProt Q9NS91); experiment: pull-down; His-sumo-tagged Rad18 bound to cobalt agarose, incubated with recombinant GST-PCNA purified from E. coli; NETN buffer without EDTA, 5 mM imidazole, 300 mM NaCl, 4 °C, 45 min; both purified

Amino acid sequences for entries named in this document (tags omitted). A change or cut given only in a name is not applied to a line headed by its entry.
UniProt Q9NS91: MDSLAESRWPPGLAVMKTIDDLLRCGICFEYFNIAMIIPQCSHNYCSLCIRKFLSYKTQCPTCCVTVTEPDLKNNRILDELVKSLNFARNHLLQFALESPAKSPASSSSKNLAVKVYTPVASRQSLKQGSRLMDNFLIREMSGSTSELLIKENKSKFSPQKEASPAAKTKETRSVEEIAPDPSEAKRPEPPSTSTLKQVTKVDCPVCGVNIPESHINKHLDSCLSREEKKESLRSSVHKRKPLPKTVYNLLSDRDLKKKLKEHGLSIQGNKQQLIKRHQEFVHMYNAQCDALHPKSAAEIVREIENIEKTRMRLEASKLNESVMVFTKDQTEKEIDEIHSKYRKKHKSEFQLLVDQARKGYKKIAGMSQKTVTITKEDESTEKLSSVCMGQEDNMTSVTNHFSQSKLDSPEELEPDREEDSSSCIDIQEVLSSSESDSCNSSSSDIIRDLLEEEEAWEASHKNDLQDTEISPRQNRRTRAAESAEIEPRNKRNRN
UniProt P12004: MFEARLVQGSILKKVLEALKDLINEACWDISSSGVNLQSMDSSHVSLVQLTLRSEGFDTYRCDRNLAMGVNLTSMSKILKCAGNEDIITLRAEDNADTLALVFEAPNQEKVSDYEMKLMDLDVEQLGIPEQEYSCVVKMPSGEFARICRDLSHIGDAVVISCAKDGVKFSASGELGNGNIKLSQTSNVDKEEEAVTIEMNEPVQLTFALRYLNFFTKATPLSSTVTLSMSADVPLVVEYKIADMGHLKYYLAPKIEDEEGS
UniProt P27694: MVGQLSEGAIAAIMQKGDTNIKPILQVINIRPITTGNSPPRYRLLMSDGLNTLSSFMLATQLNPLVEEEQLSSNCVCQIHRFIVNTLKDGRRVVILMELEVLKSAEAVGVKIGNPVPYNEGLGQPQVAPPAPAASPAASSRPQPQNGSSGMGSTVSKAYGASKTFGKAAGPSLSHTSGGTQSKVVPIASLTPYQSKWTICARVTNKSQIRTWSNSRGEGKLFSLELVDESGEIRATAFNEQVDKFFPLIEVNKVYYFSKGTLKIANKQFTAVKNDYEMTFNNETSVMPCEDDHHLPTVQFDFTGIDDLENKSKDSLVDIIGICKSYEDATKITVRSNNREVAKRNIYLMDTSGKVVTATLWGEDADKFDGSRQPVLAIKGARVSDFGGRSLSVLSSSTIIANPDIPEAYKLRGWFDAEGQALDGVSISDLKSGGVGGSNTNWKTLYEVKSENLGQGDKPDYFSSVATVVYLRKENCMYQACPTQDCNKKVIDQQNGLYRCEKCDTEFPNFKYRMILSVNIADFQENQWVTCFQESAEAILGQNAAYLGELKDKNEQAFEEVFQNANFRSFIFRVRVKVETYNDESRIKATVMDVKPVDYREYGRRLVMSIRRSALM

binding [1] | binding [2] | binding [3] | binding [4] | binding [5] | binding [6] | Substance
binds | no binding | no binding | binds | – | – | endogenous PCNA (non-ubiquitinated) (from UniProt P12004 1-261)
– | – | binds | binds | binds | – | endogenous RPA1 (from UniProt P27694 1-616)
– | – | – | – | – | no binding | recombinant GST-PCNA (from UniProt P12004 1-261)

Reference: paper PMC10987609
